Results from the antibiotic and cytotoxicity screens of Wong et al. (2023).
The other results are listed elsewhere or left out.

Assays:
[1] = test system: HSkMC (human skeletal muscle cells); experiment: cytotoxicity call (relative viability < 0.9); details: 10 µM
[2] = test system: HepG2; experiment: cytotoxicity call (relative viability < 0.9); details: 10 µM
[3] = test system: S. aureus RN4220; experiment: growth inhibition call (relative growth <= 0.2); details: 50 µM

**Q.** Which results are given for `O=C(CS)NCCCCCNC(=O)[C@H]1C[C@H]2C(=O)NCC(=O)N2[C@H]1c1cccc(OCCO)c1`?
**A.** cytotoxicity call [1]: inactive; cytotoxicity call [2]: inactive; growth inhibition call [3]: inactive

**Q.** For `CN1CCN(C)[C@@H](CO)C1`, which cytotoxicity call [1] is on record?
**A.** inactive

**Q.** What about the cytotoxicity call [2] of the same compound?
**A.** inactive

**Q.** And the growth inhibition call [3]?
**A.** inactive

**Q.** For `C[C@H](CO)N1C[C@H](C)[C@@H](CN(C)S(=O)(=O)c2ccccc2)Oc2ccc(NC(=O)CCCN(C)C)cc2CC1=O`, which cytotoxicity call [1] is on record?
**A.** inactive

**Q.** What about the cytotoxicity call [2] of the same compound?
**A.** inactive

**Q.** And the growth inhibition call [3]?
**A.** inactive

**Q.** For `C[C@H](CO)N1C[C@H](C)[C@H](CN(C)C(=O)Nc2cccc3ccccc23)Oc2ncc(C#Cc3ccc(F)cc3)cc2C1=O`, which cytotoxicity call [1] is on record?
**A.** inactive

**Q.** And the cytotoxicity call [2]?
**A.** inactive

**Q.** What about the growth inhibition call [3] of the same compound?
**A.** inactive

**Q.** Which results are given for `C[C@@H]1CN([C@H](C)CO)C(=O)Cc2cc(NC(=O)C3CCCCC3)ccc2O[C@@H]1CN(C)S(=O)(=O)c1cn(C)cn1`?
**A.** cytotoxicity call [1]: inactive; cytotoxicity call [2]: inactive; growth inhibition call [3]: inactive

**Q.** Which cytotoxicity call [1] does the source give for `C[C@@H]1CCCCO[C@@H](CN(C)C(=O)c2ccccc2)[C@H](C)CN([C@@H](C)CO)C(=O)c2cc(NC(=O)Cc3ccccc3)ccc2O1` here?
**A.** inactive

**Q.** What about the cytotoxicity call [2] of the same compound?
**A.** inactive

**Q.** What about the growth inhibition call [3] of the same compound?
**A.** inactive

**Q.** What does the source list for `COc1ccc(CN(C)C[C@H]2Oc3c(NC(=O)c4ccc(-c5nccs5)cc4)cccc3C(=O)N([C@@H](C)CO)C[C@@H]2C)cc1`?
**A.** cytotoxicity call [1]: inactive; cytotoxicity call [2]: inactive; growth inhibition call [3]: inactive

**Q.** For `CC(C)NC(=O)N(C)C[C@@H]1Oc2c(NS(=O)(=O)c3ccc(F)cc3)cccc2C(=O)N([C@@H](C)CO)C[C@H]1C`, which cytotoxicity call [1] is on record?
**A.** inactive

**Q.** And the cytotoxicity call [2]?
**A.** inactive

**Q.** And the growth inhibition call [3]?
**A.** inactive

**Q.** Which results are given for `O=C(C[C@H]1CC[C@@H]2[C@H](COC[C@H](O)CN2C(=O)Nc2ccc(C(F)(F)F)cc2)O1)NCCc1ccncc1`?
**A.** cytotoxicity call [1]: inactive; cytotoxicity call [2]: inactive; growth inhibition call [3]: active

**Q.** Which cytotoxicity call [1] does the source give for `O=C(C[C@@H]1CC[C@@H]2[C@H](COC[C@@H](O)CN2C(=O)Nc2cccc(F)c2)O1)NCCCN1CCOCC1` here?
**A.** inactive

**Q.** And the cytotoxicity call [2]?
**A.** inactive

**Q.** And the growth inhibition call [3]?
**A.** inactive

**Q.** `CSCc1nc(=O)cc(C(=O)O)[nH]1` was tested. Which cytotoxicity call [1] did it give?
**A.** inactive

**Q.** And the cytotoxicity call [2]?
**A.** inactive

**Q.** What about the growth inhibition call [3] of the same compound?
**A.** inactive

**Q.** How did the cytotoxicity call [1] turn out when `C[C@@H]1CCCCO[C@H](CN(C)C(=O)Nc2ccc(C(F)(F)F)cc2)[C@H](C)CN([C@H](C)CO)C(=O)c2cc(NS(=O)(=O)c3ccccc3)ccc2O1` was run?
**A.** inactive

**Q.** And the cytotoxicity call [2]?
**A.** active

**Q.** And the growth inhibition call [3]?
**A.** inactive

**Q.** How did the cytotoxicity call [1] turn out when `C[C@H](CO)N1C[C@H](C)[C@H](CN(C)S(=O)(=O)c2cn(C)cn2)Oc2c(NC(=O)Nc3ccc(F)cc3)cccc2C1=O` was run?
**A.** inactive

**Q.** What about the cytotoxicity call [2] of the same compound?
**A.** inactive

**Q.** What about the growth inhibition call [3] of the same compound?
**A.** inactive

**Q.** `COc1cc(O)cc(OC)c1O[C@@H]1O[C@H](CO)[C@@H](O)[C@H](O)[C@H]1O` was tested. Which cytotoxicity call [1] did it give?
**A.** inactive

**Q.** What about the cytotoxicity call [2] of the same compound?
**A.** inactive

**Q.** What about the growth inhibition call [3] of the same compound?
**A.** inactive

**Q.** `CC(=O)N1CCO[C@H]2CN(S(=O)(=O)c3cccnc3)C[C@@H]2C1` was tested. Which cytotoxicity call [1] did it give?
**A.** inactive

**Q.** What about the cytotoxicity call [2] of the same compound?
**A.** inactive

**Q.** What about the growth inhibition call [3] of the same compound?
**A.** inactive

**Q.** `C[C@@H]1CN([C@@H](C)CO)C(=O)Cc2cc(NC(=O)NC3CCCCC3)ccc2O[C@@H]1CN(C)Cc1ccc(C(F)(F)F)cc1` was tested. Which cytotoxicity call [1] did it give?
**A.** inactive

**Q.** And the cytotoxicity call [2]?
**A.** inactive

**Q.** And the growth inhibition call [3]?
**A.** inactive

**Q.** How did the cytotoxicity call [1] turn out when `CC(=O)Nc1ccc(OC(=O)c2ccccc2O)cc1` was run?
**A.** inactive

**Q.** And the cytotoxicity call [2]?
**A.** inactive

**Q.** And the growth inhibition call [3]?
**A.** inactive

**Q.** Which cytotoxicity call [1] does the source give for `Cc1noc(C)c1S(=O)(=O)Nc1ccc2c(c1)CC(=O)N([C@@H](C)CO)C[C@H](C)[C@H](CN(C)C(=O)NC1CCCCC1)O2` here?
**A.** inactive

**Q.** And the cytotoxicity call [2]?
**A.** inactive

**Q.** And the growth inhibition call [3]?
**A.** inactive

**Q.** How did the cytotoxicity call [1] turn out when `C[C@@H]1CN([C@H](C)CO)C(=O)CCCn2cc(nn2)CO[C@H]1CN(C)C(=O)Nc1ccc(N2CCCCC2)cc1` was run?
**A.** inactive

**Q.** And the cytotoxicity call [2]?
**A.** inactive

**Q.** What about the growth inhibition call [3] of the same compound?
**A.** inactive

**Q.** What does the source list for `CCS(=O)(=O)N1CC[C@]2(CC1)CN([C@H](CO)c1c2c2ccc(cc2n1C)OC)C(=O)c1ccc(cc1)F`?
**A.** cytotoxicity call [1]: inactive; cytotoxicity call [2]: inactive; growth inhibition call [3]: inactive

**Q.** `C[C@@H]1CN([C@H](C)CO)C(=O)c2cc(N(C)C)ccc2O[C@@H](C)CCCCO[C@H]1CN(C)Cc1ccc(C(F)(F)F)cc1` was tested. Which cytotoxicity call [1] did it give?
**A.** inactive

**Q.** And the cytotoxicity call [2]?
**A.** inactive

**Q.** And the growth inhibition call [3]?
**A.** inactive

**Q.** `C[C@@H]1CCCCO[C@@H](CN(C)S(=O)(=O)c2ccc(F)cc2)[C@@H](C)CN([C@@H](C)CO)C(=O)c2cc(NC(=O)c3ccccc3)ccc2O1` was tested. Which cytotoxicity call [1] did it give?
**A.** inactive

**Q.** What about the cytotoxicity call [2] of the same compound?
**A.** inactive

**Q.** And the growth inhibition call [3]?
**A.** inactive

**Q.** `N[C@@H](COCc1ccccc1)C(=O)O` was tested. Which cytotoxicity call [1] did it give?
**A.** inactive

**Q.** And the cytotoxicity call [2]?
**A.** inactive

**Q.** And the growth inhibition call [3]?
**A.** inactive

**Q.** How did the cytotoxicity call [1] turn out when `C[C@H]1CN([C@@H](C)CO)C(=O)c2cccc(NC(=O)Nc3ccccc3)c2O[C@@H]1CN(C)C(=O)Nc1ccc(C(F)(F)F)cc1` was run?
**A.** inactive

**Q.** And the cytotoxicity call [2]?
**A.** inactive

**Q.** What about the growth inhibition call [3] of the same compound?
**A.** inactive

**Q.** Which results are given for `Cc1ccnc(NC(=O)c2cc3sc4ccccc4c3s2)c1`?
**A.** cytotoxicity call [1]: inactive; cytotoxicity call [2]: inactive; growth inhibition call [3]: inactive

**Q.** Which cytotoxicity call [1] does the source give for `COC(=O)Cc1c(C)[nH]c2ncnn2c1=O` here?
**A.** inactive

**Q.** And the cytotoxicity call [2]?
**A.** inactive

**Q.** And the growth inhibition call [3]?
**A.** inactive

**Q.** Which cytotoxicity call [1] does the source give for `C[C@@H]1CN([C@H](C)CO)C(=O)Cc2cc(NC(=O)Nc3cccc4ccccc34)ccc2O[C@H]1CN(C)S(=O)(=O)c1ccc(F)cc1` here?
**A.** inactive

**Q.** What about the cytotoxicity call [2] of the same compound?
**A.** inactive

**Q.** And the growth inhibition call [3]?
**A.** inactive

**Q.** How did the cytotoxicity call [1] turn out when `C[C@@H]1CN([C@H](C)CO)C(=O)Cc2cc(NC(=O)CCC(F)(F)F)ccc2O[C@@H]1CN(C)Cc1ccc(C(=O)Nc2ccccc2N)cc1` was run?
**A.** inactive

**Q.** What about the cytotoxicity call [2] of the same compound?
**A.** inactive

**Q.** And the growth inhibition call [3]?
**A.** inactive

**Q.** How did the cytotoxicity call [1] turn out when `CC(C)NC(=O)N(C)C[C@H]1Oc2ccc(NC(=O)Cc3ccccc3)cc2C(=O)N([C@H](C)CO)C[C@@H]1C` was run?
**A.** inactive

**Q.** What about the cytotoxicity call [2] of the same compound?
**A.** inactive

**Q.** What about the growth inhibition call [3] of the same compound?
**A.** inactive

**Q.** `Cc1ccc([C@@H](CN)c2c[nH]c3ccccc23)o1` was tested. Which cytotoxicity call [1] did it give?
**A.** inactive

**Q.** What about the cytotoxicity call [2] of the same compound?
**A.** inactive

**Q.** And the growth inhibition call [3]?
**A.** inactive

**Q.** For `COc1ccc(Cl)cc1C(=O)NCCc1ccc(S(=O)(=O)NC(=O)NC2CCCCC2)cc1`, which cytotoxicity call [1] is on record?
**A.** inactive

**Q.** What about the cytotoxicity call [2] of the same compound?
**A.** inactive

**Q.** And the growth inhibition call [3]?
**A.** inactive
